In all, about 150,000 compounds went through this assay and about 540 (0.36%) showed an effect of 50% or more. The list shows a part of the results.

The assay deals with Plasmodium falciparum. Description: Primary screen in NF54 nanoGlo assay, in single point, at 2uM, 72h; a lower Z score goes with more inhibition. It is filed as functional, Erythrocyte. The following applies: timepoint 72 hour.
For `CO[C@H]1[C@H](NC(=O)c2c(F)cccc2Cl)c2ccccc2C12CCNCC2`, the “% Inhibition” value was -8% and the Z score is 1.06.

Turning to `Cc1cccc(NS(=O)(=O)c2cc(-c3[nH]nc(C)c3C)sc2C)c1`, the “% Inhibition” value worked out at 5% and the Z score is listed as -0.6.

As to `Cn1ncn(CC(=O)NCCC2=CCCCC2)c1=O`, the “% Inhibition” value is given as -5% and the Z score is 1.

In the case of `Cc1cc(C)cc(C2CCN(C(=O)C(C)O)C2)c1` (centres undefined), the “% Inhibition” value was -9% and the Z score was determined as 1.76.

Consider `Cc1nc(C(C)C)cc(N2CCN(Cc3ccc(Cl)s3)CC2)n1`, for which the “% Inhibition” value was -6% and the Z score stood at 1.24.

Regarding `Cc1nnc(COc2ccc3ccccc3c2Br)o1`, the “% Inhibition” value is given as -9% and the Z score is on record as 1.68.

Turning to `Cn1cc(Cl)c(-c2nc([C@H]3CCOC3)no2)n1`, the “% Inhibition” value was found to be 2% and the Z score is recorded as -0.27.

As for `O=C(N[C@H](c1ccc(F)cc1F)C1CC1)c1cnn2cccc(Cl)c12`, the “% Inhibition” value was 1% and the Z score is reported as -0.09.

Take `O=C(NCc1cn(-c2cccnc2)nn1)c1ccc(S(=O)(=O)N2CCOCC2)cc1`: the “% Inhibition” value was -5% and the Z score is 0.73.

Consider `CCC[C@H]1CN(C(=O)CCc2ccc(N(C)C)cc2)C[C@@H]1NC(C)=O`, for which the “% Inhibition” value is reported as -14% and the Z score was 1.96.

Consider `CC1CC(C)n2nccc2N1C(=O)COCc1ccccc1Cl` (centres undefined), for which the “% Inhibition” value was -2% and the Z score amounted to 0.39.

`CC(C)c1nnsc1CN(C)Cc1cnccn1`: the “% Inhibition” value is -13% and the Z score came to 1.23.

Turning to `CC1(C)CN(C(=O)CC2CC3CCC2C3)CC[S+]1[O-]` (centres undefined), the “% Inhibition” value was -2% and the Z score is given as 0.4.

For `O=C(NCc1ccccc1)NC[C@@]12CCC[C@H]1N(CC1CCCCC1)C(=O)CC2`, the “% Inhibition” value is -5% and the Z score was 0.6.

`CCOc1cc(N2CCN(C)CC2)ccc1NC(=O)[C@H]1CCCN(C(=O)N(CC)CC)C1`: the “% Inhibition” value is listed as -16% and the Z score is 2.38.

As for `CCOCCN(C[C@H](C)C(=O)OC)C(=O)Cc1ccccc1F`, the “% Inhibition” value stood at 0% and the Z score was -0.04.

In the case of `CC(C)CC(=O)N1CCN(Cc2cccc(C#N)c2)[C@@H]2CS(=O)(=O)C[C@@H]21`, the “% Inhibition” value is -7% and the Z score is listed as 1.03.

With `C[C@H]1CN(C(=O)NCc2cccc(Cl)c2)C[C@@H]1CS(N)(=O)=O`, the “% Inhibition” value is recorded as -18% and the Z score worked out at 1.79.

As for `Cn1ccnc(NC[C@]2(O)CCCC2(C)C)c1=O`, the “% Inhibition” value is -19% and the Z score is 1.77.

For the compound `CCc1ccnc(C(=O)N2CCN(c3cnccn3)CC2)c1`, the “% Inhibition” value was -4% and the Z score is reported as 0.46.

Turning to `CN(CCCn1cccn1)C(=O)NC[C@@H](c1ccc(F)cc1)N1CCCC1`, the “% Inhibition” value was -2% and the Z score is recorded as 0.41.

As to `Cc1ccc(CN2CCN(Cc3cc(CC(C)C)[nH]n3)C[C@@H]2CCO)o1`, the “% Inhibition” value is listed as 11% and the Z score is -1.46.

For `O=C1CCC(=O)N1C1CCC(NC2CC(c3ccccc3)C2)CC1` (centres undefined), the “% Inhibition” value is recorded as -5% and the Z score was 0.68.

`COc1cccc(CN[C@H]2[C@H](O)[C@@H](n3cccn3)[C@@H]3OC[C@H]2O3)c1`: the “% Inhibition” value is reported as -9% and the Z score was 1.48.

For the compound `CCOc1cc(N(C)Cc2nc(C)cs2)ncn1`, the “% Inhibition” value is -2% and the Z score turned out to be 0.23.

For `CC(=O)c1ccc(NC(=O)c2cc(-c3cccnc3)n(-c3ccc(C)cc3)n2)cc1`, the “% Inhibition” value is -4% and the Z score came to 0.56.

For the compound `CCOC(=O)c1cccc(NC(=O)C2(N3CCOCC3)CCC2)c1`, the “% Inhibition” value was determined as 1% and the Z score is -0.06.

As to `Cc1nn(-c2ccccc2)c2nc(Cc3ccccc3)nc(N3CCCN(C(=O)NC4CCCCC4)CC3)c12`, the “% Inhibition” value is 21% and the Z score is on record as -4.11.

As to `CC1CCCCC1CNC(=O)C(O)C(O)c1nc2ccccc2s1` (centres undefined), the “% Inhibition” value is 6% and the Z score was -0.95.

In the case of `O=C(NCc1ccc(N2CCCCC2)nc1)c1cccc(Cl)c1`, the “% Inhibition” value was -7% and the Z score is 0.91.

Regarding `CCc1noc(-c2ccc3nnc(CC(=O)NCc4ccc(Cl)cc4)n3c2)n1`, the “% Inhibition” value was -7% and the Z score was 1.17.

On to `CCc1ccccc1C(=O)N1C[C@H]2C[C@H](C1)[C@@H]1CCCC(=O)N1C2`, for which the “% Inhibition” value is -8% and the Z score was 1.28.

For `CCc1ncc(CN2CCC(CCC(=O)N(C)Cc3ccccc3)CC2)cn1`, the “% Inhibition” value stood at 2% and the Z score is -0.26.

For `COc1cccc(CNC(=O)N2CCN(CC(F)(F)F)[C@@H](C)C2)n1`, the “% Inhibition” value was -2% and the Z score worked out at 0.3.

Take `CC(C)N(CC(N)=O)CC(=O)N1CCOC2CCCCC21` (centres undefined): the “% Inhibition” value worked out at 17% and the Z score was -2.12.

As for `CC(C)c1nnc([C@H](CC(=O)O)c2cccc(Cl)c2)o1`, the “% Inhibition” value is on record as -8% and the Z score is on record as 1.03.

`CN1CCN(c2ccc(-c3nc(CC(N)=O)n[nH]3)cc2)CC1`: the “% Inhibition” value is given as -8% and the Z score is given as 1.29.

For the compound `CC(C)[C@@H](NC(=O)C1CCC(F)(F)CC1)C(=O)O`, the “% Inhibition” value is -6% and the Z score turned out to be 0.83.

Consider `Cc1nc2nc(C3CCCCC3)nn2c(C)c1CC(=O)N1CCOCC1`, for which the “% Inhibition” value is on record as -6% and the Z score is listed as 0.73.

For the compound `Cc1ccc(C[C@H](C)c2nc(CN3C(=O)NC(C)(C)C3=O)no2)cc1`, the “% Inhibition” value is listed as -1% and the Z score came out at 0.14.

For the compound `CC(C#N)CN(C)S(=O)(=O)NCC1CCCOC1C(C)(C)C` (centres undefined), the “% Inhibition” value is given as 0% and the Z score is reported as -0.07.

As for `Cc1nc(C)c(C)c(N2C[C@@H]3[C@@H]4CC[C@@H](C4)[C@@H]3C2)n1`, the “% Inhibition” value is listed as -5% and the Z score is on record as 0.68.

The % Inhibition is the relative decrease from the control value, in per cent.

For the origin of these results see ChEMBL document CHEMBL4888484, “Replenishing the malaria drug discovery pipeline: Screening and hit evaluation of the MMV Hit Generation Library 1 (HGL1) against asexual blood stage Plasmodium falciparum ,using a nano luciferase reporter read-out” (2022).
